# Publication PMC4336329 (PLoS ONE, 2015)
# Screen size: about 310,000 compounds; about 2,200 (0.71%) showed an effect of 50% or more. The effect is printed as a negative number. The list shows a part of the results.
# Target: human ether-à-go-go-related gene (hERG) potassium channel (human, UniProt Q12809)
# Experiment: primary screen, population patch clamp on CHO cells stably expressing hERG
# Chain of human ether-à-go-go-related gene (hERG) potassium channel (Q12809 whole entry, looked up): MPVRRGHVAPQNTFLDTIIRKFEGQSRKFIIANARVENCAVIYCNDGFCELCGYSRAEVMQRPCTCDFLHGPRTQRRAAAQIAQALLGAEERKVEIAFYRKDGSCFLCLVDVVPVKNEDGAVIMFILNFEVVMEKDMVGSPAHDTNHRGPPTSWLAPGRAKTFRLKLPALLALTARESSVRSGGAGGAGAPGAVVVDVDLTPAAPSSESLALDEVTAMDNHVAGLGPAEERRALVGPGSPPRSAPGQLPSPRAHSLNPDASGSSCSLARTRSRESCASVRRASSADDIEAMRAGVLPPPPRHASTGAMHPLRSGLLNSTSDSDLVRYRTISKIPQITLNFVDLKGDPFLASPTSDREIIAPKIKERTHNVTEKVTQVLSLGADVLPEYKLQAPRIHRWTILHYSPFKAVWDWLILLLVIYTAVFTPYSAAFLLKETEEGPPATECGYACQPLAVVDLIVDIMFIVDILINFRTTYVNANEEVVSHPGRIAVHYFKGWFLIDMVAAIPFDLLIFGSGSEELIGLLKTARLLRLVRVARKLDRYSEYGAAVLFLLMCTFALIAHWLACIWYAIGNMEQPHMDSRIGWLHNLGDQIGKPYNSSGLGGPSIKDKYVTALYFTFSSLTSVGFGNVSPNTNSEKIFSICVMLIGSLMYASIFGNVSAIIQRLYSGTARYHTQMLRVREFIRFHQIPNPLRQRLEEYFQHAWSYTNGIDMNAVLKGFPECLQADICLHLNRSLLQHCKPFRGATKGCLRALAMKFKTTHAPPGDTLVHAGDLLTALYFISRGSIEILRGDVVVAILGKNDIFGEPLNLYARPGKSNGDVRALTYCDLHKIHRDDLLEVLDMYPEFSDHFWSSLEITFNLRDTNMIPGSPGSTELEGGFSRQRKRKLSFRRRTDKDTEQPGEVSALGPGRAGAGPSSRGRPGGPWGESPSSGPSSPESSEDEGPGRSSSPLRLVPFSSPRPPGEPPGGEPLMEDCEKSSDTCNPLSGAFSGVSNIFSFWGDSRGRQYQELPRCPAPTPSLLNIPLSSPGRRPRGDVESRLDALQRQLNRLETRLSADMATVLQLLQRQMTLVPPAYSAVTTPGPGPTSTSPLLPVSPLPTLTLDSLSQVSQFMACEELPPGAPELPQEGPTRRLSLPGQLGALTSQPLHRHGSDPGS
row,SMILES,"hERG current change (%, negative = inhibition) at 1uM"
1,NC(=O)c1sc(=S)n2c1[nH]c(=O)c1sccc12,6.55%
2,Cc1cc(NCC2CCCO2)n2c(nc3ccccc32)c1C#N (stereo not shown),6.98%
3,C=CCn1c(SCC(=O)NC2CC2)nc2sc(CC)cc2c1=O,-4.76%
4,O=C(NCc1cccs1)C1CCC(=O)N1C1CCCCC1 (stereo not shown),11.8%
5,CN(C)C1(CN=Cc2cc(Cl)cc([N+](=O)[O-])c2O)CCCCC1,14.1%
6,Cc1onc(-c2c(F)cccc2Cl)c1C(=O)OCc1cnc(Cl)s1,13%
7,Cc1cc2n(n1)C(c1cccs1)Nc1ccccc1-2 (stereo not shown),9%
8,CCOc1ccccc1N1CCN(C(=O)c2cccs2)CC1,13.9%
9,CCOc1ccc(CCNC(=O)CSCC(=O)Nc2cccc(C)c2)cc1OCC,7.27%
10,COc1ccc(C2=C(C[NH+](C)C)C(c3ccccc3)c3ccccc3O2)cc1.[Cl-] (stereo not shown),9.73%
11,CCc1ccccc1NC(=O)CSc1nnc([C@@H](N)Cc2c[nH]c3ccccc23)o1.Cl,-4.23%
12,Cc1cccc(N2CCN(C(=O)C3CCN(S(=O)(=O)c4cccc5cccnc45)CC3)CC2C)c1 (stereo not shown),8.86%
13,CC1=C(C(=O)Nc2ccc(Cl)cc2)C2(CCCCC2)C(C(N)=O)C(=S)N1 (stereo not shown),5.88%
14,CC(=O)N1CCc2c(sc(NC(=O)C3CCN(S(=O)(=O)c4cccs4)CC3)c2C(N)=O)C1,-3.63%
15,Cc1cc(C)cc(NC(=O)CCN2CC(C)OC(C)C2)c1 (stereo not shown),12.7%
16,Cc1ccc2oc3c(c(=O)c2c1)C(c1cccs1)N(CCCN(C)C)C3=O (stereo not shown),7.72%
17,Cc1cc(N/N=C/c2ccccc2[N+](=O)[O-])nc(-n2nc(C)cc2C)n1,18.5%
18,CCCCn1c(SCC(=O)NCc2ccco2)nnc1-c1ccco1,-4.89%
19,COCc1cc(C)nc(Nc2ccc(C)c(C)c2)c1C#N,1.67%
20,CC(=O)N[C@@H](Cc1ccc(O)cc1)CN1C(N)=NC[C@@H]1CC(C)C,5.59%
21,COCCn1c(C)cc(C(=O)CSc2ncn[nH]2)c1C,4.71%
22,CSCc1cc(N(C)C)nc(SCc2ccc(Cl)c(Cl)c2)n1,9.47%

row,SMILES,"hERG current change (%, negative = inhibition) at 1uM"
1,CCOC(Cn1c(-c2ccc(OC)cc2)nc2ccccc21)OCC,-3.69%
2,Cc1ccc(N(C(=O)c2csnn2)C(C(=O)NC(C)(C)C)c2ccncc2)cc1 (stereo not shown),10.2%
3,CCCn1cnnc1CNC(=O)C1CCC(=O)N(CCc2ccc(OC)cc2)C1 (stereo not shown),16.7%
4,O=C(NNC(=O)c1ccccc1F)C1=NN(c2ccccc2)C(=O)CC1,13.1%
5,Cc1cccc2sc(N(CCN(C)C)C(=O)/C=C/c3cccs3)nc12.Cl,4.81%
6,CCc1cc2cc(C)ccc2nc1SCC(=O)N1CC(=O)Nc2ccccc21,13.3%
7,COCCNC(=O)NC12CC3CC(CC(C3)C1)C2,16.1%
8,CCOC(=O)c1cc(-c2ccccc2)sc1NC(=O)COC,11.7%
9,Cc1cccc(/C=N/NC(=O)CN2CCCCCCC2)c1,-4.73%
10,CN(C)S(=O)(=O)n1cnc(C(CCO)c2ncn(S(=O)(=O)N(C)C)c2CCCO)c1 (stereo not shown),5.19%
11,CCOc1ccc(C2CC(c3cccc(C)c3)n3nc(N)nc3N2)cc1 (stereo not shown),-20%
12,CN(C)CCCN1c2ccc([N+](=O)[O-])cc2CCc2cc([N+](=O)[O-])ccc21,4.35%
13,Cc1cc(NC(=O)CSc2n[nH]c(-c3cccs3)n2)no1,12.5%
14,O=C1[C@H]2[C@@H](/C=C/c3ccccc3)N3C(=O)CN(Cc4ccccn4)C(=O)[C@@]3(Cc3ccccc3)[C@H]2C(=O)N1c1ccccc1,-11.3%
15,Cc1ccc([N+](=O)[O-])cc1S(=O)(=O)Nc1ccc(N2CCOCC2)cc1,21.8%
16,CC(=O)NC(=S)Nc1ccc(NC(=O)COc2ccc(C(C)C)cc2)cc1,7.56%
17,CCOc1ccc(-c2n[nH]c(C)c2-c2ccccn2)c(O)c1,-3.73%
18,CCn1c(=O)c(C(=O)NNC(=O)c2cccc(Cl)c2)c(O)c2ccccc21,16.2%
19,CC(C)(C)NC(=O)C(c1ccncc1)N(C(=O)C1CSC(=O)C1)c1ccccc1 (stereo not shown),13.5%
20,COc1ccc(NC(=S)N(CCC(C)C)C(C)c2ccncc2)cc1 (stereo not shown),-8.31%
21,CCCc1cc(C(=O)NNC(=S)Nc2cccc(C)c2)cs1,-10.3%
